Test results published in PubChem BioAssay AID504332 (National Center for Advancing Translational Sciences (NCATS), 2011).
Screen size: about 350,000 compounds; about 31,000 (8.9%) were called active. Inconclusive means that the source gave no clear call. Such entries were picked first, then a sample of the others. The call rests on the fitted dose curve; in most records, active means well fitted inhibition curve with a large enough effect; inconclusive means small, poorly fitted or top-dose-only effect; inactive means no such curve, though single readings can be large or run the other way. Potencies beside an inconclusive call are fits to weak or partial responses and may not hold up.
Further: nearly all actives have a fitted effect of over 75% in size.
On the % scale 0 is the no-effect control and ±100 the full control effect; potency means the concentration at half of the fitted maximal effect; tags describe the fitted curve by direction and shape.

The molecules below were run against Histone-lysine N-methyltransferase EHMT2 (Homo sapiens) (UniProt Q96KQ7) (assay: qHTS Assay for Inhibitors of Histone Lysine Methyltransferase G9a). Conditions: G9a H3K9 monomethylation, AlphaScreen, 2 h; activity, negative = inhibition: at 59 µM (top of the series) unless noted.
UniProt Q96KQ7, sequence (Q96KQ7 whole entry, looked up): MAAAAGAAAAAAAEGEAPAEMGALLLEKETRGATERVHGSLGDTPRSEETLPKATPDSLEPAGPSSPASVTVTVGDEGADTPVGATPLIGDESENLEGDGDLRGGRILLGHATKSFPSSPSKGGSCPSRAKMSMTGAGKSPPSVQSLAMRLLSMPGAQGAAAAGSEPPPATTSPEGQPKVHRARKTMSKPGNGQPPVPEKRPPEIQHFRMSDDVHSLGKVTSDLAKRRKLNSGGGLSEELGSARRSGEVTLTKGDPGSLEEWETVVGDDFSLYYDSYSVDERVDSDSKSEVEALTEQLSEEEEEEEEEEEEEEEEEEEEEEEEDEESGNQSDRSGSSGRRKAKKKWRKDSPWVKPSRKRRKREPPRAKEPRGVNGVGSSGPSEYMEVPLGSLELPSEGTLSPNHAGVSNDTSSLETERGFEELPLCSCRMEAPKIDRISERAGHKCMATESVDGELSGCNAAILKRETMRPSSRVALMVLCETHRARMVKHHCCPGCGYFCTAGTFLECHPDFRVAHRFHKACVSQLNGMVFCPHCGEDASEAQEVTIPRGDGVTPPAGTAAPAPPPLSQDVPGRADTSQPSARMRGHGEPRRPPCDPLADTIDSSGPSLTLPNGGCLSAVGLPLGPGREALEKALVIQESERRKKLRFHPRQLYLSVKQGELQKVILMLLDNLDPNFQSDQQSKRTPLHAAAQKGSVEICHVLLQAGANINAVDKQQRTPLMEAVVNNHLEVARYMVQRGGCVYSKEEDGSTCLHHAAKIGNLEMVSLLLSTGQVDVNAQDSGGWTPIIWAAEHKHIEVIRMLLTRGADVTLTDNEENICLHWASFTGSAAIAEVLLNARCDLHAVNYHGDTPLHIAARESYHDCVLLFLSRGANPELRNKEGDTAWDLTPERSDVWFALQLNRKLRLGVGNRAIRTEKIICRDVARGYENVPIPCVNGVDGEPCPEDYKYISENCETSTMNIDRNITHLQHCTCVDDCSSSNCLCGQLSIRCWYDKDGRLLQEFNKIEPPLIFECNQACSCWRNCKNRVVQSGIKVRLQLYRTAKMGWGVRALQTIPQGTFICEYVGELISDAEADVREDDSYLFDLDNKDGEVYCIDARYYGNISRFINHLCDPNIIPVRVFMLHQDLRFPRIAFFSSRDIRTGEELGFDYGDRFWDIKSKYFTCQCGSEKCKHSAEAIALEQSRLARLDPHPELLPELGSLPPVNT
Summary of the method: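 Step 1: enzyme (final 20 nM) with compound, 15 min RT. Step 2: substrate peptide 500 nM and SAM 20 uM, 2 h RT. Step 3: anti-H3K9me1 antibody and AlphaScreen beads, 10 min, then plate read.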
In the case of Cc1ccc2c(ccc[n+]2CC(=O)c2ccccc2)c1, the Potency is reported as “inactive”. For CCc1nnc2c(Nc3ccc(Br)c(C)c3)nc3ccccc3n12, the Potency was inconclusive: 39.8 µM [inhibitor, partial curve, poor fit]. With C[C@H](NC(=O)c1ccccc1Cl)C(=O)OCc1cn2cc(Cl)ccc2n1 the Potency was inconclusive: 44.7 µM [inhibitor, partial curve, poor fit]. CC(=O)NCCc1ccc(S(=O)(=O)N2CCN(c3nc(-c4ccccc4)c(C)s3)CC2)cc1 was tested, and the Potency was inconclusive: 100 µM [inhibitor, single point]. For Cn1c(=O)c2c(n3c4ccccc4nc13)NC(=O)CC2c1ccccc1F (centres undefined), the Potency was “inactive”. In the case of Cn1c(=O)c2c(SCC(=O)Nc3nccs3)nc(C3CC3)nc2n(C)c1=O, the Potency is reported as “inactive”. In the case of Cc1cc(C)cc(OCC(=O)NCC(c2ccc(Cl)cc2)N2CCCCC2)c1 (centres undefined), the Potency is reported as “inactive”. In the case of CCN1CCN(Cc2ccc(C(=O)Nc3ccc(C)c(NCc4cnc(NC(=O)OC)cn4)c3)cc2C(F)(F)F)CC1, the Potency is reported as inconclusive: 89.1 µM [inhibitor, single point]. With COC(=O)Nc1ccc(S(=O)(=O)N2CCC(C(=O)NC3CCCCC3)CC2)cc1 the Potency was “inactive”. With COC(=O)c1ccc(NC(=O)CC2C(=O)N(c3ccc(Cl)cc3)C(=O)N2Cc2cccs2)cc1 (centres undefined) the Potency was “inactive”. With CN(CCc1ccccn1)S(=O)(=O)c1ccc(F)cc1 the Potency was active: 7.08 µM. With COc1cc(NC(=S)NC(=O)c2ccc(C(C)(C)C)cc2)ccc1NC(=O)c1cccs1 the Potency was inconclusive: 100 µM [inhibitor, single point]. In the case of CC(=O)Oc1ccc2nc(/C=C/c3ccc(C=O)cc3)oc(=O)c2c1, the Potency is reported as inconclusive: 89.1 µM [inhibitor, single point]. For CCOc1ccc(NC(=O)c2sc3nc(C)nc(N4CCOCC4)c3c2C)cc1, the Potency was “inactive”. For CCc1ccc(NCc2cc3cc4c(cc3n(CC(=O)Nc3ccc(Cl)cc3)c2=O)OCO4)cc1, the Potency was inconclusive: 3.16 µM [inhibitor, partial curve, poor fit]. In the case of COc1ccccc1-c1cc(C(F)(F)F)nc(S(=O)(=O)CCCC(=O)N2CCCCC2C)n1 (centres undefined), the Potency is reported as inconclusive: 79.4 µM [inhibitor, partial curve, poor fit]. With COc1ccc(OC)c(N(CC(=O)NCc2ccccc2)S(=O)(=O)c2ccccc2)c1 the Potency was inconclusive: 39.8 µM [inhibitor, partial curve, poor fit]. With COc1ccc(-n2c(=O)c3ccccc3n(CC(=O)Nc3cccc(OC)c3)c2=O)cc1 the Potency was “inactive”. O=C(COC(=O)c1n[nH]c2ccccc12)c1ccc(F)c(F)c1 was tested, and the activity, negative = inhibition was inactive: 10% [at 0.501 µM]. O=[N+]([O-])c1ccc(Oc2cccc3cccnc23)c([N+](=O)[O-])c1 was tested, and the Potency was inconclusive: 79.4 µM [inhibitor, single point]. With C[N+]1(CC(=O)OCCCc2ccccc2)CCOCC1 the Potency was active: 70.8 µM. C=CS(=O)(=O)c1sc(Cl)c(N2CCOCC2)c1[N+](=O)[O-] was tested, and the Potency was active: 8.91 µM. COc1cc(OC)cc(OC(=O)C2CCN(C3=NS(=O)(=O)c4ccccc43)CC2)c1 was tested, and the Potency was inconclusive: 3.98 µM [inhibitor, single point]. For Cc1c(Cl)cccc1NC(=O)c1ccc(-n2ccnc2)nc1, the Potency was “inactive”. With O=C(NC1=NCCS1)c1ccc(-c2ccc(Cl)cc2)o1 the Potency was inconclusive: 89.1 µM [inhibitor, single point]. In the case of Cc1nnc(SCCCN2C(=O)c3ccccc3C2=O)o1, the Potency is reported as inconclusive: 3.16 µM [inhibitor, single point]. In the case of Cc1cc(S(=O)(=O)Nc2cccc(C(=O)O)c2)c(C)c(S(=O)(=O)c2ccccc2)c1, the Potency is reported as “inactive”. Cc1cc(Cl)c(OCCCSc2nc(C)cc(=O)[nH]2)c(Br)c1 was tested, and the activity, negative = inhibition was inactive: 23.4% [at 12.7 µM]. For Cn1nc([N+](=O)[O-])c(C(C#N)c2nc3ccccc3n2C)c(Cl)c1=O (centres undefined), the Potency was inconclusive: 31.6 µM [inhibitor, single point]. For COc1cccc(C(=O)N2CCN(Cc3ccc4c(c3)OCO4)CC2)c1OC, the Potency was inconclusive: 5.01 µM [inhibitor, single point]. In the case of CC(C)(O)c1[nH]c2cc(F)ccc2c1C(C)(C)O, the Potency is reported as inconclusive: 89.1 µM [inhibitor, single point]. With CCn1c(SCC(=O)Nc2ccc3c(c2)OCCO3)nnc1-c1ccncc1 the Potency was inconclusive: 1 µM [inhibitor, partial curve, poor fit]. For CC1(C)Cc2ccccc2/C(=C/C(=O)c2ccccc2)N1, the Potency was inconclusive: 79.4 µM [inhibitor, partial curve]. CCOC(=O)C1CCN(c2c(C(=O)c3ccccc3)cnc3ccc(Cl)cc23)CC1 was tested, and the Potency was inconclusive: 1.58 µM [inhibitor, full curve, poor fit]. In the case of COc1ccccc1NC(=O)CCCOc1cc(=O)n(C)c2ccccc12, the Potency is reported as “inactive”. COc1ccccc1-n1cnnc1SCC(=O)Nc1cc(C(C)(C)C)nn1-c1ccccc1 was tested, and the Potency was “inactive”. With CCN1CCN(CCCN(Cc2ccco2)C(=S)Nc2cc(Cl)ccc2C)CC1 the Potency was active: 28.2 µM. CCc1ccccc1NC(=O)Nc1nnc(N2CCCC2)s1 was tested, and the Potency was “inactive”. CCOc1ccc(/C=C/C2=CC(C)(C)NC(=S)N2)cc1 was tested, and the Potency was active: 39.8 µM. CCc1ccc(CN(Cc2ccco2)C(=O)c2ccccc2Cl)cc1 was tested, and the Potency was “inactive”. In the case of CCCCN(C(=O)c1cc2c(s1)CCCC2)c1c(N)n(CCC)c(=O)[nH]c1=O, the Potency is reported as inconclusive: 12.6 µM [inhibitor, single point]. For CCCc1nnc(NC(=O)Cn2c(=O)sc3ccccc32)s1, the Potency was inconclusive: 79.4 µM [inhibitor, single point]. O=C(OCC(=O)N1CCN(C(=O)c2ccco2)CC1)c1cc(S(=O)(=O)Nc2ccc(Cl)cc2)ccc1O was tested, and the Potency was inconclusive: 39.8 µM [inhibitor, partial curve, poor fit]. CCCCCC(=O)Nc1nc(C)c(-c2csc(Nc3cc(Cl)ccc3OC)n2)s1 was tested, and the Potency was inconclusive: 25.1 µM [inhibitor, single point]. For Cc1cc(-c2ccccc2)n(-c2ccc(C(=O)N3CCN(c4ncccn4)CC3)cc2)n1, the Potency was inconclusive: 31.6 µM [inhibitor, partial curve, poor fit]. With Cn1c(=O)c2c(ncn2CC(=O)N2CCCc3ccccc32)n(C)c1=O the Potency was inconclusive: 89.1 µM [inhibitor, single point]. In the case of COc1ccc(S(=O)(=O)N2CCOCC2)cc1NC(=O)c1cccc(-n2cccc2)c1, the Potency is reported as active: 28.2 µM. In the case of O=C(CCn1c2c(c3ccccc31)CCCC2)NNC(=O)c1ccccc1[N+](=O)[O-], the Potency is reported as “inactive”. Cc1cc(OCC(=O)Nc2ccc(CN3CCCCC3)cc2)ccc1Cl was tested, and the Potency was inconclusive: 70.8 µM [inhibitor, single point]. In the case of O=C(c1cccc(Cl)c1)N1CCN(C2CCCCCC2)CC1, the Potency is reported as active: 20 µM. Cc1cc2oc3c(c(=O)c2cc1C)C(c1ccc(F)cc1)N(CCCN1CCOCC1)C3=O (centres undefined) was tested, and the Potency was inconclusive: 31.6 µM [inhibitor, single point]. With C1CSC2(N1)C1CC3CC2CC(C1)C31NCCS1 (centres undefined) the Potency was inconclusive: 2.82 µM [inhibitor, full curve, poor fit]. In the case of COc1ccc(OCC(=O)Nc2nccs2)cc1, the Potency is reported as inconclusive: 0.562 µM [inhibitor, partial curve, poor fit]. With COc1cc(NC(=O)Cn2c(=O)n(Cc3ccccc3OC)c(=O)c3cccnc32)cc(OC)c1 the Potency was “inactive”. For O=C(CSc1ccc2ccccc2n1)c1ccc2c(c1)OCO2, the Potency was “inactive”. With Cc1ccc(-c2ccc(/C=N/N3C(=O)C4C5C=CC(C6CC56)C4C3=O)o2)c([N+](=O)[O-])c1 (centres undefined) the Potency was active: 44.7 µM. For C=CCn1c(=O)c(C(=O)Nc2ccccc2S(N)(=O)=O)c(O)c2ccccc21, the Potency was inconclusive: 89.1 µM [inhibitor, partial curve, poor fit]. O=C(CSCC(=O)Nc1ccccc1)N/N=C/c1c(O)ccc2ccccc12 was tested, and the Potency was active: 1.58 µM. COc1cccc(CC2(CO)CCCN(Cc3ccccc3Cl)C2)c1 (centres undefined) was tested, and the Potency was active: 79.4 µM. In the case of Cc1ccc(C)c(/C(O)=C2\C(=O)C(=O)N(CCCN3CCOCC3)C2c2cccnc2)c1 (centres undefined), the activity, negative = inhibition is reported as inconclusive: -78.2% [inhibitor]. In the case of O=C(CSC1=NCCS1)N1CCN(c2ccc(Cl)cc2)CC1, the activity, negative = inhibition is reported as inconclusive: -65.1% [inhibitor]. In the case of CC1CC(Nc2ccccc2)c2ccccc2N1C(=O)c1ccco1 (centres undefined), the Potency is reported as “inactive”. In the case of O=C(CSc1nnc(CNC(=O)c2cccs2)o1)c1ccccc1, the Potency is reported as inconclusive: 3.55 µM [inhibitor, partial curve, poor fit]. Cc1cc(SCC(=O)N/N=C/c2ccccc2C(=O)O)c(C)cc1Br was tested, and the Potency was inconclusive: 100 µM [inhibitor, single point]. Cc1c(C(=O)N2CCN(c3ccccc3F)CC2)oc2c1C(=O)CC(C)(C)C2 was tested, and the Potency was inconclusive: 70.8 µM [inhibitor, partial curve, poor fit]. In the case of O=C(/C(N=Nc1cccc([N+](=O)[O-])c1)=C(/O)c1ccc(Br)cc1)C(F)(F)F, the Potency is reported as active: 39.8 µM. For O=C1c2ccccc2C(=O)c2c(NCCCN(CCO)CCO)cccc21, the Potency was active: 44.7 µM. In the case of CC12CCC(C(=O)N(CCCN3CCN(Cc4ccccc4)CC3)C1=O)C2(C)C (centres undefined), the Potency is reported as inconclusive: 3.55 µM [inhibitor, full curve, poor fit]. With CCc1ccc2oc(-c3cccc(NC(=O)c4ccc(-c5cccc([N+](=O)[O-])c5)o4)c3)nc2c1 the Potency was inconclusive: 25.1 µM [inhibitor, partial curve, poor fit].
